Assay results from ChEMBL document CHEMBL5308541, “MAIP: An Open-Source Tool to Enrich High-Throughput Screening Output and Identify Novel, Druglike Molecules with Antimalarial Activity” (ACS Med Chem Lett, 2023).
The whole screen tested about 150,000 compounds, of which about 540 (0.36%) showed an effect of 50% or more. Some of the results follow.

Tested on: Plasmodium falciparum
Assay: Primary screen in NF54 nanoGlo assay, in single point, at 2uM, 72h; a lower Z score goes with more inhibition
Format: functional, Erythrocyte
Conditions: timepoint 72 hour

Question: For CCC[C@H]1CN(C(=O)OC(C)(C)C)CCN1c1cc(-n2ccnc2)ncn1, which “% Inhibition” value is on record?
Answer: 0%

Question: What about the Z score of the same molecule?
Answer: -0.06

Question: Which results are given for CCOC(=O)N1CCN(C(=O)c2ccc(N3CCC(NC[C@H]4COCCO4)CC3)cc2)CC1?
Answer: % Inhibition: -6%; Z score: 1.23

Question: Cc1nc(N2CCC(CNC(=O)OC(C)(C)C)CC2)c2cc[nH]c2n1 was tested. Which “% Inhibition” value did it give?
Answer: 3%

Question: What about the Z score of the same molecule?
Answer: -0.44

Question: Which “% Inhibition” value does the source give for c1cc(CNC2CCN(c3nccs3)CC2)cc(OC2CCC2)n1 here?
Answer: -7%

Question: What about the Z score of the same molecule?
Answer: 1.61

Question: For Cc1cnccc1NCCNC1CCN(C(=O)[C@@H]2CCCO2)CC1, which “% Inhibition” value is on record?
Answer: -9%

Question: What about the Z score of the same molecule?
Answer: 1.97

Question: Which results are given for Cc1nc2c(c(N3CC[C@H](N(C)C)C3)n1)CCN(c1ccncc1)CC2?
Answer: % Inhibition: -3%; Z score: 0.47

Question: How did the “% Inhibition” value turn out when Cc1ccc(NC(=O)c2ccc(Nc3ccc(-c4cccc(F)c4)nn3)cc2)c(C)c1 was run?
Answer: -13%

Question: What about the Z score of the same molecule?
Answer: 2.19

Question: What does the source list for CN1CCC(N(Cc2ccncc2)C(=O)NCCN2CCC[C@H](CO)C2)CC1?
Answer: % Inhibition: -13%; Z score: 2.21

Question: Which “% Inhibition” value does the source give for CCCCc1ccc(Nc2nc3ccccc3nc2Nc2ccc(CCCC)cc2)cc1 here?
Answer: 5%

Question: And the Z score?
Answer: -0.94

Question: What does the source list for COCCCn1ccc(Nc2ccc3nccnc3n2)n1?
Answer: % Inhibition: 1%; Z score: -0.17

Question: Which results are given for COc1cc2nc(N[C@H]3CCN(C(C)C)C3=O)nc(N)c2cc1OC?
Answer: % Inhibition: -1%; Z score: 0.28

Question: Which results are given for CN(C)C(=O)c1ccc(CN2CC(CC(=O)O)C(c3c[nH]nn3)C2)o1 (stereo unspecified)?
Answer: % Inhibition: -5%; Z score: 0.89

Question: Which results are given for Nc1nc(N2CCCC3(CCNCC3)C2)nc2ccccc12?
Answer: % Inhibition: 6%; Z score: -0.86

Question: Which “% Inhibition” value does the source give for OC(CNc1ccc(Nc2ccccc2)cc1)CNc1ccc(Nc2ccccc2)cc1 here?
Answer: -16%

Question: And the Z score?
Answer: 2.79

Question: Which results are given for O[C@H](COC1CCOCC1)CN1CCC(Oc2cnccn2)CC1?
Answer: % Inhibition: -2%; Z score: 0.48

Question: Which results are given for CCN1CC(C)N(CC=CCN2CC(C)N(CC)CC2C)CC1C (stereo unspecified)?
Answer: % Inhibition: 2%; Z score: -0.43

Question: With COC1CN(Cc2ccc(CN(C)S(C)(=O)=O)o2)CC1O (stereo unspecified) as the molecule, how does the “% Inhibition” value read?
Answer: 0%

Question: What about the Z score of the same molecule?
Answer: -0.07

Question: Which “% Inhibition” value does the source give for c1ccc2c(c1)CCN2c1cc(N[C@H]2CCOC3(CCCC3)C2)ncn1 here?
Answer: 1%

Question: And the Z score?
Answer: -0.16

Question: Which “% Inhibition” value does the source give for C[C@H]1c2sccc2CCN1C(=O)C1CC(N(C)C(=O)OC(C)(C)C)C1 (stereo partly specified) here?
Answer: -14%

Question: What about the Z score of the same molecule?
Answer: 2.44

Question: Which “% Inhibition” value does the source give for CN(C)C1(CNCc2cnc(NCc3ccccc3)nc2)CCCCC1 here?
Answer: 8%

Question: And the Z score?
Answer: -1.79

Question: For CC(NC(=O)C(C)C1CN(C(=O)OC(C)(C)C)C1)c1cc(F)ccc1N1CCN(C)CC1 (stereo unspecified), which “% Inhibition” value is on record?
Answer: -7%

Question: What about the Z score of the same molecule?
Answer: 1.13

Question: What does the source list for Fc1ccc2c(C3CCN(CC4=CCCOC4)CC3)c[nH]c2c1?
Answer: % Inhibition: 4%; Z score: -0.68

Question: Which “% Inhibition” value does the source give for O=C(c1cccc(Nc2cnccn2)c1)N1CCN[C@H](c2ccccc2Cl)C1 here?
Answer: -6%

Question: And the Z score?
Answer: 0.84

Question: CC1(C)CC(NC2CCOCC2OCC2CC2)CC(C)(C)N1 (stereo unspecified) was tested. Which “% Inhibition” value did it give?
Answer: -3%

Question: And the Z score?
Answer: 0.51

Question: Cc1ccc2ncc(C(=O)N(C)Cc3nc4ccccc4s3)c(O)c2c1 was tested. Which “% Inhibition” value did it give?
Answer: -3%

Question: And the Z score?
Answer: 0.51

Question: What does the source list for Cc1c2c(=O)n(-c3ccc(F)cc3)[nH]c2cc(=O)n1CCc1c[nH]c2ccc(Cl)cc12?
Answer: % Inhibition: -1%; Z score: 0.2

Question: With C[C@H]1CNCCN1C(=O)c1ccc(-c2cnn(Cc3ccccc3)c2)cc1 as the molecule, how does the “% Inhibition” value read?
Answer: 6%

Question: What about the Z score of the same molecule?
Answer: -1.29

Question: Cn1cc(CNCCNc2ncccn2)c(-c2ccncc2)n1 was tested. Which “% Inhibition” value did it give?
Answer: -14%

Question: What about the Z score of the same molecule?
Answer: 2.45

Question: With Cn1ncnc1-c1cccc(Nc2cccc(N3CC[C@H](Oc4cnccc4C#N)C3)n2)c1 as the molecule, how does the “% Inhibition” value read?
Answer: 5%

Question: And the Z score?
Answer: -1.05

Question: How did the “% Inhibition” value turn out when Cc1cnn(CC2CCN(C(=O)[C@H]3CCCN(CC(N)=O)C3)CC2)c1 was run?
Answer: -10%

Question: And the Z score?
Answer: 1.73

Question: What does the source list for CC(C)N1CCN(CCCN2CCN(C)C3(CCCCC3)C2)CC1?
Answer: % Inhibition: 3%; Z score: -0.69

Question: Which “% Inhibition” value does the source give for c1ccc(Cn2ccnc2[C@H]2CCCN(c3ncnc4[nH]ccc34)C2)nc1 here?
Answer: 4%

Question: What about the Z score of the same molecule?
Answer: -0.79

Question: Which “% Inhibition” value does the source give for CCc1ccc(Br)cc1C(=O)N[C@@H](CO)C(N)=O here?
Answer: 1%

Question: And the Z score?
Answer: -0.29

Question: What does the source list for Cc1nc2ccc(C(=O)N(C)Cc3cc(C4CC4)on3)cc2o1?
Answer: % Inhibition: -9%; Z score: 1.56

Question: With Cc1nn(CC(F)(F)F)cc1C(=O)N(C)[C@@H](C)CO as the molecule, how does the “% Inhibition” value read?
Answer: -6%

Question: What about the Z score of the same molecule?
Answer: 0.97

Question: For O=C(NC1CCN(Cc2ccc(Cl)cc2)CC1)[C@@H]1CCCN1C1CCCC1, which “% Inhibition” value is on record?
Answer: -2%

Question: What about the Z score of the same molecule?
Answer: 0.43

Question: Which “% Inhibition” value does the source give for Cc1ccnc([C@H]2CCN(CC(=O)N(CCC#N)CCC#N)C2)c1 here?
Answer: -2%

Question: And the Z score?
Answer: 0.32

Question: What does the source list for COc1cccc(Nc2ccccc2C(=O)N(C)[C@H]2CCNC2)c1?
Answer: % Inhibition: -10%; Z score: 1.92

Question: What does the source list for CN([C@@H](c1ccccc1)c1ccccc1Br)S(=O)(=O)c1c[nH]c2ncccc12?
Answer: % Inhibition: 60%; Z score: -11.93

Question: N#Cc1ccc(N2CCC[C@H](N3CCN(c4ccc(F)cc4)CC3)C2)nc1 was tested. Which “% Inhibition” value did it give?
Answer: 7%

Question: What about the Z score of the same molecule?
Answer: -1.61

Question: With CN1C(C)(C)CC(NC(=O)c2cc(-c3cccc(C(F)(F)F)c3)on2)CC1(C)C as the molecule, how does the “% Inhibition” value read?
Answer: 11%

Question: What about the Z score of the same molecule?
Answer: -2.02

Question: c1cc(N2CCCN(c3ccnc(-c4nccs4)n3)CC2)ccn1 was tested. Which “% Inhibition” value did it give?
Answer: -4%

Question: And the Z score?
Answer: 0.78

Question: For CN(Cc1nc(-c2ccncc2)no1)c1nccc(N2CCC(O)CC2)n1, which “% Inhibition” value is on record?
Answer: 0%

Question: What about the Z score of the same molecule?
Answer: 0.03

Question: CCc1ccc(-c2ccc(Nc3ccc(C(N)=O)cc3)nn2)cc1S(N)(=O)=O was tested. Which “% Inhibition” value did it give?
Answer: -9%

Question: And the Z score?
Answer: 1.53

Question: For O=C(CCN1CCCCCCC1)NCc1noc(-c2c(F)cccc2F)n1, which “% Inhibition” value is on record?
Answer: 5%

Question: And the Z score?
Answer: -1.14

Question: COc1ccc(CNCc2cc3ccccc3[nH]2)cc1CN(C)C was tested. Which “% Inhibition” value did it give?
Answer: 41%

Question: What about the Z score of the same molecule?
Answer: -7.29

Question: Which results are given for OCC1CCCN1c1cc(N2CCOC(c3cc(F)c(Cl)cc3Cl)C2)ncn1 (stereo unspecified)?
Answer: % Inhibition: 14%; Z score: -2.91

Question: What does the source list for C[C@@H](CNc1ncnc2[nH]ccc12)CN1CCCCC1?
Answer: % Inhibition: -15%; Z score: 2.21

Question: COc1ccc(N2CCN(CCCN[C@@H](C)CS(=O)(=O)c3ccccc3)CC2)cc1 was tested. Which “% Inhibition” value did it give?
Answer: -4%

Question: And the Z score?
Answer: 0.91

Question: For COc1ccnc(NC[C@@H]2C[C@H](F)CN2Cc2cncnc2)n1, which “% Inhibition” value is on record?
Answer: -7%

Question: And the Z score?
Answer: 1.48

Question: COCCN1CCC(CN(C)c2ncnc3cc[nH]c23)CC1 was tested. Which “% Inhibition” value did it give?
Answer: 14%

Question: What about the Z score of the same molecule?
Answer: -2.08

Question: For c1ccc(-c2nnc(NCc3ccnc(OC4CCC4)c3)s2)nc1, which “% Inhibition” value is on record?
Answer: -6%

Question: And the Z score?
Answer: 1.28

Question: Which results are given for Cc1cc(C(=O)NC2CCN(c3ncnc4[nH]ccc34)CC2O)no1 (stereo unspecified)?
Answer: % Inhibition: 1%; Z score: -0.23
